From PMC6919601, “Identification of Plasmodium dipeptidyl aminopeptidase allosteric inhibitors by high throughput screening” (PLoS ONE, 2019)
Among all 110,000 compounds or so, about 230 (0.21%) showed an effect of 50% or more. Some of the results follow.

biological target: DPAP1 (Plasmodium falciparum, UniProt Q8IIJ9); experiment: primary screen, percent inhibition; read by cleavage of a fluorogenic dipeptide substrate; higher = more effect of the substance; parameters: species or system P. falciparum D10 trophozoite lysates; single well
Sequence (Q8IIJ9 whole entry, looked up): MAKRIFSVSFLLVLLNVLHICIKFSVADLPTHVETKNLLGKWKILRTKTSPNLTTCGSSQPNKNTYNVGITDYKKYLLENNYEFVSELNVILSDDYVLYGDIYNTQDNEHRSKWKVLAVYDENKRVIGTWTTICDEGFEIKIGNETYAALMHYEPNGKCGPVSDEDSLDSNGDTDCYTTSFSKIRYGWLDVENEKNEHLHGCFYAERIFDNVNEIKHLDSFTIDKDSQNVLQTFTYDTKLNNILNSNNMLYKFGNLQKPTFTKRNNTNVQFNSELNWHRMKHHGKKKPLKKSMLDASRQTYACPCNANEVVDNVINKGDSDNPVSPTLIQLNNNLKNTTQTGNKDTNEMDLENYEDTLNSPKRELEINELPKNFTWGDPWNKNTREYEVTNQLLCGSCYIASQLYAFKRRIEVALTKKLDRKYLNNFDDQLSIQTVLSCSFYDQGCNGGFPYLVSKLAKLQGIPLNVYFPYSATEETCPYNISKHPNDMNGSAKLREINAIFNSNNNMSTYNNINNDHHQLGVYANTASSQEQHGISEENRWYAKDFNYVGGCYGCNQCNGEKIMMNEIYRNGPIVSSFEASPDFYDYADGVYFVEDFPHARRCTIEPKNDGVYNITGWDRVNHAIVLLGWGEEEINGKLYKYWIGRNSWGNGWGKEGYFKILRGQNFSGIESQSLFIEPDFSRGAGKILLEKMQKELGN
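Also: 30 min substrate incubation versus DMSO and 10 µM JCP410 controls.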

Compared with O=C(Nc1ccc(Cl)cc1)Nc1nc(-c2ccccc2)cs1, O=C(NCc1ccccn1)c1ccc(Cl)cc1 is higher in “% Inhibition @ 10 uM” value: 0.962% for the first, 4.89% for the second.

Compared with COC(=O)c1nnn(-c2ccc(C(C)C)cc2)c1C(=O)OC, Cc1ccc(NC(=O)c2nc(C)c(C)nc2C(=O)NC(C)C)cc1 is lower in “% Inhibition @ 10 uM” value: 0.163% for the first, -3.69% for the second.

Compared with COc1ccccc1-c1nnc2sc(COc3ccccc3C)nn12, Cc1ccccc1OCCSc1nc(-c2ccccc2)nc2cc(=O)[nH]n12 is higher in “% Inhibition @ 10 uM” value: 2.68% for the first, 5.62% for the second.

Going from Cc1cc(C(F)F)nn1CC(=O)NC(C)C1CC2CCC1C2 (stereo not shown) to Cc1cc(C)n2nc(SCC(=O)NC3CCCC(C)C3C)nc2n1 (stereo not shown), the “% Inhibition @ 10 uM” value falls from 7.03% to -0.519%.

First: O=C1NC(=O)C(=Cc2cn(Cc3ccccc3)c3ccccc23)C(=O)N1
Second: O=C(Cn1cc(SCc2ccccc2)c2ccccc21)N1CCCC1
The “% Inhibition @ 10 uM” value of the first is higher: 4.41% for the first, -2.55% for the second.

Compared with COc1ccc2c(c1)c1c3n2CCNC3CCC1 (stereo not shown), COc1ccc(OC)c(S(=O)(=O)N2CCN(C(=O)c3ccco3)CC2)c1 is lower in “% Inhibition @ 10 uM” value: 5.8% for the first, -7.34% for the second.

First: CN1CCC2(CC1)CC1CC3C=CC1(CN2)O3 (stereo not shown)
Second: Cc1cc(C)c(S(=O)(=O)NCC2CCC(C(=O)N3CCN(C)CC3)CC2)c(C)c1 (stereo not shown)
The “% Inhibition @ 10 uM” value of the first is lower: -7.09% for the first, -2.72% for the second.

Compared with CN1CCN(C(=O)c2ccc(N(C)S(C)(=O)=O)cc2)CC1, O=C(CCN1C(=O)c2ccccc2C1=O)N1CCN(C(=O)c2ccccc2)CC1 is lower in “% Inhibition @ 10 uM” value: 2.27% for the first, -7.34% for the second.

Compared with O=C(NCCCSC1CCCCC1)c1ccc(CS(=O)(=O)Cc2cccc(Cl)c2)o1, COc1ccc(C(=O)NCc2nnc(SCC(=O)NC3CCCCC3)o2)cc1 is higher in “% Inhibition @ 10 uM” value: 0.718% for the first, 76.6% for the second.

Compared with COc1ccc(S(=O)(=O)N(CC(=O)N2CCCCCC2)c2ccc(C)cc2)cc1Br, COc1cc2c(cc1OC)C(c1ccccc1)N(S(=O)(=O)c1ccc(C)cc1)CC2 (stereo not shown) is higher in “% Inhibition @ 10 uM” value: -1.59% for the first, -1.47% for the second.

Going from COc1ccc(C2CC(c3ccc(Br)cc3)=NN2C(=O)CCC(=O)O)cc1OC (stereo not shown) to COc1ccc(C2=NN3C(C2)c2cc(Br)ccc2OC3c2ccncc2)cc1 (stereo not shown), the “% Inhibition @ 10 uM” value rises from 1.65% to 27.9%.

Going from O=C(NCCCc1nc2ccccc2[nH]1)c1ccc(F)cc1 to O=C(NCCOCc1ccc(Cl)cc1)c1cncc(Br)c1, the “% Inhibition @ 10 uM” value falls from 0.032% to -3.04%.

Going from N#CC1=C(N)OC2=C(C(=O)CCC2)C1CCc1ccccc1 (stereo not shown) to Cc1nc2c([nH]1)OC(N)=C(C#N)C2c1ccccc1F (stereo not shown), the “% Inhibition @ 10 uM” value rises from 2.51% to 2.76%.

Going from O=C1N=C(N2CCOCC2)S/C1=C/c1cccc2ccccc12 to O=C(NCc1ccccc1)c1cc(-c2ccncc2)nc2ccc(S(=O)(=O)N3CCOCC3)cc12, the “% Inhibition @ 10 uM” value falls from 3.21% to -2.72%.

First: COc1cc(NC2C3CC4CC(C3)CC2C4)cc(OC)c1OC (stereo not shown)
Second: COc1cc(C(=O)NC(C)C(=O)O)cc(OC)c1OC (stereo not shown)
The “% Inhibition @ 10 uM” value of the first is higher: 1.57% for the first, 0.035% for the second.

Going from CCOC(=O)C1=C(C(F)(F)F)Nc2ncnn2C1c1cc(OC)c(OC)cc1OC (stereo not shown) to COc1ccc(C2=CC(c3ccc(F)cc3)n3ncnc3N2)cc1OC (stereo not shown), the “% Inhibition @ 10 uM” value rises from 1.73% to 12.6%.

Compared with CC(CCc1ccccc1)NC(=O)CCCn1ncn2c(cc3occc32)c1=O (stereo not shown), CCOCCCNC(=O)Cn1c(=O)c2cccn2c2cccnc21 is lower in “% Inhibition @ 10 uM” value: 1.38% for the first, -3.27% for the second.

First: COc1cc2c(cc1OC)C(C(=O)N(C)Cc1ccccc1)C(c1cccnc1)N(C)C2=O (stereo not shown)
Second: COc1ccc(C2c3cc(OC)c(OC)cc3CC(=O)N2c2ccc(C(=O)O)cc2)cc1 (stereo not shown)
The “% Inhibition @ 10 uM” value of the first is lower: 2.59% for the first, 12.4% for the second.

First: Cc1cc(OCc2ccc(C3C(C#N)=C(N)OC4=C3C(=O)CC(C)(C)C4)o2)ccc1Cl (stereo not shown)
Second: CCCCc1[nH]nc2c1C(c1ccc(N(C)C)cc1)C(C#N)=C(N)O2 (stereo not shown)
The “% Inhibition @ 10 uM” value of the first is higher: -0.463% for the first, -2.77% for the second.

First: COc1cc(OC)c(CN(C)CCN(C)C)cc1Br
Second: COc1ccc(C(=O)C(=O)c2ccc(OC)c(OC)c2)cc1OC
The “% Inhibition @ 10 uM” value of the first is lower: -1.05% for the first, 1.78% for the second.

Going from CCOc1ccc2nc(C)c(Cc3ccc(OC)cc3)c(S)c2c1 to COc1ccc(N2CC(O)Cn3c2nc2c3c(=O)n(C)c(=O)n2C)cc1 (stereo not shown), the “% Inhibition @ 10 uM” value rises from 1.72% to 2.75%.

First: Cc1ccc([N+](=O)[O-])cc1NS(=O)(=O)c1cc(Cl)ccc1Cl
Second: O=S(=O)(Nc1cccc(Cl)c1Cl)c1ccc(F)cc1
The “% Inhibition @ 10 uM” value of the first is higher: 1.63% for the first, -3.44% for the second.

Compared with Cc1sc2[nH]c(C(=O)c3ccccc3)nc2c1C, Cc1onc(-c2ccccc2Cl)c1C(=O)Nc1sc(C)c(C)c1C(N)=O is higher in “% Inhibition @ 10 uM” value: -1.04% for the first, 4.88% for the second.

Compared with Oc1ncnc2scc(-c3cccs3)c12, Oc1c2c(nc3cc(-c4ccccc4)nn13)CCC2 is lower in “% Inhibition @ 10 uM” value: 4.33% for the first, -9.37% for the second.

Compared with Cc1ccc(S(=O)Cc2ccc(C(=O)O)o2)cc1 (stereo not shown), Cc1ccc(CNS(=O)(=O)c2ccc(-n3cccn3)cc2)cc1 is lower in “% Inhibition @ 10 uM” value: 9.23% for the first, -1.6% for the second.

Compared with CCCSCCCNC(=O)c1c(C)nn(-c2ccccc2)c1-n1cccc1, CCCNC(=O)c1nn2c(C(F)(F)F)cc(-c3ccccc3)nc2c1Cl is higher in “% Inhibition @ 10 uM” value: 1.8% for the first, 5.03% for the second.

First: CCc1ccccc1NC(=O)c1ccccc1OC
Second: COC(=O)Nc1ccccc1C(=O)N1CCN(Cc2ccccc2)CC1
The “% Inhibition @ 10 uM” value of the first is lower: -3.49% for the first, 7.22% for the second.

First: Nc1nonc1-n1nnc(C(=O)O)c1CSc1ccccc1
Second: Cc1ccc(-c2cc(C(=O)NCc3cn(C)nc3C)c3ccccc3n2)cc1C
The “% Inhibition @ 10 uM” value of the first is higher: 1.62% for the first, -1.1% for the second.

Going from CCN(CC)S(=O)(=O)c1cc(C(=O)Nc2ccc(Br)cc2)ccc1C to CN(C)c1ccc(-c2nc3cc(NC(=O)c4ccccc4)ccc3o2)cc1, the “% Inhibition @ 10 uM” value rises from -13.5% to 1.62%.

Going from Cc1noc(/C=C/N(C)C)c1S(=O)(=O)N1CCCCC1 to COc1ccccc1CNS(=O)(=O)c1c(C)noc1C, the “% Inhibition @ 10 uM” value falls from 17.5% to -2.7%.

First: O=C(CN1C(=O)c2ccccc2C1=O)NCCCN1CCOCC1
Second: CCc1ccc(C(C)(O)C(CN2CCOCC2)c2ccccc2)cc1 (stereo not shown)
The “% Inhibition @ 10 uM” value of the first is lower: -5.28% for the first, -2.28% for the second.

First: O=S(=O)(NCCOC12CC3CC(CC(C3)C1)C2)c1ccc2nc(O)sc2c1
Second: Cc1ccc(C23CC4CC(CC(C(=O)NC(C)C(=O)O)(C4)C2)C3)cc1 (stereo not shown)
The “% Inhibition @ 10 uM” value of the first is lower: -2.19% for the first, 7.5% for the second.

First: CCOC(=O)N1CCC(NC(=O)c2sc(-n3cccc3)nc2C)CC1
Second: CCOC(=O)N1CCC(N2CCN(S(=O)(=O)c3ccc(OC)cc3)CC2)CC1
The “% Inhibition @ 10 uM” value of the first is higher: -2.37% for the first, -5.28% for the second.

Compared with CCOC(=O)CSC1=C(C#N)C2(CCCC2)C(C#N)C(=O)N1 (stereo not shown), CC1(CC(NC(=O)OCc2ccccc2)C(=O)NCC#N)CCCC1 (stereo not shown) is lower in “% Inhibition @ 10 uM” value: 1.42% for the first, -6.46% for the second.

First: Cc1ccc(Cn2c(CN3CC(C)OC(C)C3)nc3c2c(=O)[nH]c(=O)n3C)cc1 (stereo not shown)
Second: Cn1c(=O)[nH]c(=O)c2c1nc1oc(-c3ccccc3)cn12
The “% Inhibition @ 10 uM” value of the first is lower: -3.14% for the first, 2.16% for the second.

Compared with CCOC(=O)c1ccc2nc(C(F)(F)F)nc(N3CC(C)CC(C)C3)c2c1 (stereo not shown), Cc1nc2nc(NC(=O)c3ccc(C(C)(C)C)cc3)nn2c(C)c1Cl is higher in “% Inhibition @ 10 uM” value: -1.11% for the first, 3.66% for the second.

Going from CN(Cc1ccccc1)Cc1ccccc1O to CN1CCC(N(C)Cc2ccc(-c3ccccc3)cc2)CC1, the “% Inhibition @ 10 uM” value falls from -1.78% to -5.41%.

Going from COc1cccc(/C=C2\SC(Nc3ccc(F)cc3)=NC2=O)c1 to CCN1C(=O)N/C(=C/c2ccc(OCc3cccc(C(=O)O)c3)c(Br)c2)C1=O, the “% Inhibition @ 10 uM” value falls from 6.79% to -17.7%.

First: Cc1ccsc1/C=C1\CN(C)C/C(=C\c2sccc2C)C1=O
Second: Cc1cc(-c2ccc(C)c(S(=O)(=O)N3CC=C(c4ccccc4)CC3)c2)on1
The “% Inhibition @ 10 uM” value of the first is higher: 6.89% for the first, 3.2% for the second.

First: O=C(/C(=C/Nc1cccc(Cl)c1)C(=O)C(F)(F)F)c1cccs1
Second: O=C(c1ccccc1)c1cc(Cl)ccc1NC(=O)C1COc2ccccc2O1 (stereo not shown)
The “% Inhibition @ 10 uM” value of the first is higher: 1.35% for the first, -5.1% for the second.

Compared with C=CCNC(=O)/C(C#N)=C/c1c(Oc2cccc(C)c2C)nc2c(C)cccn2c1=O, CCc1nonc1NC(=O)c1oc2c(C)c(C)ccc2c1C is lower in “% Inhibition @ 10 uM” value: 2% for the first, 1.67% for the second.

First: N#CCNC(=O)[C@H](Cc1ccc(OCc2ccccc2)cc1)NC(=O)c1ccccc1
Second: O=c1ccn(-c2nc(-c3ccccc3)sc2-c2ccccc2)c(=O)[nH]1
The “% Inhibition @ 10 uM” value of the first is lower: -5.21% for the first, 2.65% for the second.

Going from CCOC(=O)N1CCN(Cc2ccccc2Br)CC1 to OC(COc1ccc2ccccc2c1)CN1CCCC1 (stereo not shown), the “% Inhibition @ 10 uM” value rises from -0.0494% to 1.4%.

Going from O=C(CN1C(=O)C2C3C=CC(C3)C2C1=O)N1CCN(C(c2ccccc2)c2ccc(Cl)cc2)CC1 (stereo not shown) to Cc1ccc(C2(C)CC(C)(C)N(C(=O)CN3C(=O)CCC3=O)c3ccccc32)cc1 (stereo not shown), the “% Inhibition @ 10 uM” value falls from 7.29% to -3.26%.

Compared with CC1CCCC(NC(=O)c2ccc(C/N=c3/c(N4CCCC4)c(O)c3=O)cc2)C1C (stereo not shown), NC(=O)C1CCN(C2CC(=O)N(c3ccc(Br)cc3)C2=O)CC1 (stereo not shown) is higher in “% Inhibition @ 10 uM” value: -3.96% for the first, 0.658% for the second.

First: O=c1cc(CSc2cccc3cccnc23)c2ccc(O)cc2o1
Second: c1ccc2cc(OCCCN3CCCC3)ccc2c1
The “% Inhibition @ 10 uM” value of the first is higher: 0.032% for the first, -1.64% for the second.

First: N#CCNC(=O)[C@H](CC1CCCCC1)NC(=O)CCC(=O)O
Second: CC(C)C[C@H](NC(=O)c1cc(Br)c(Cl)s1)C(=O)NCC#N
The “% Inhibition @ 10 uM” value of the first is lower: -6.98% for the first, -1.82% for the second.

First: Cc1ccc(S(=O)(=O)NCCC(=O)NCCC(C)C)cc1
Second: CC(=O)c1ccc(OCC(O)CN2C(C)(C)CC(O)CC2(C)C)cc1 (stereo not shown)
The “% Inhibition @ 10 uM” value of the first is higher: 1.42% for the first, -1.4% for the second.

Compared with CCSc1nc2c(c(=O)n1C1CCCC1)C1(CCCC1)Cc1ccccc1-2, COc1ccc(C(=N)NOC(=O)COc2ccc(Cl)cc2C)cc1OC is lower in “% Inhibition @ 10 uM” value: -0.436% for the first, -1.47% for the second.

First: CCOC(=O)c1nc(C)[nH]c1C(=O)OCC
Second: O[C@H]1CC[C@H](NC2C3CC4CC(C3)CC2C4)CC1 (stereo partly shown)
The “% Inhibition @ 10 uM” value of the first is lower: -7.46% for the first, 2.91% for the second.
